# Experimental data as given in PubChem BioAssay AID504332 (National Center for Advancing Translational Sciences (NCATS), 2011).
# Values joined by “and” are separate entries in the source; they are usually repeats but may differ in a detail not shown here. Equal entries are not always repeated. The campaign covered roughly 350,000 compounds. About 31,000 (8.9%) were called active. The shares of active, inactive and inconclusive entries below differ from those in the screen. The call rests on the fitted dose curve; in most records, active means well fitted inhibition curve with a large enough effect; inconclusive means small, poorly fitted or top-dose-only effect; inactive means no such curve, though single readings can be large or run the other way. Potencies of inconclusive entries are doubtful fits and often do not repeat.
# Molecular target: Histone-lysine N-methyltransferase EHMT2 (Homo sapiens) (UniProt Q96KQ7)
# UniProt Q96KQ7, sequence (Q96KQ7 whole entry, looked up): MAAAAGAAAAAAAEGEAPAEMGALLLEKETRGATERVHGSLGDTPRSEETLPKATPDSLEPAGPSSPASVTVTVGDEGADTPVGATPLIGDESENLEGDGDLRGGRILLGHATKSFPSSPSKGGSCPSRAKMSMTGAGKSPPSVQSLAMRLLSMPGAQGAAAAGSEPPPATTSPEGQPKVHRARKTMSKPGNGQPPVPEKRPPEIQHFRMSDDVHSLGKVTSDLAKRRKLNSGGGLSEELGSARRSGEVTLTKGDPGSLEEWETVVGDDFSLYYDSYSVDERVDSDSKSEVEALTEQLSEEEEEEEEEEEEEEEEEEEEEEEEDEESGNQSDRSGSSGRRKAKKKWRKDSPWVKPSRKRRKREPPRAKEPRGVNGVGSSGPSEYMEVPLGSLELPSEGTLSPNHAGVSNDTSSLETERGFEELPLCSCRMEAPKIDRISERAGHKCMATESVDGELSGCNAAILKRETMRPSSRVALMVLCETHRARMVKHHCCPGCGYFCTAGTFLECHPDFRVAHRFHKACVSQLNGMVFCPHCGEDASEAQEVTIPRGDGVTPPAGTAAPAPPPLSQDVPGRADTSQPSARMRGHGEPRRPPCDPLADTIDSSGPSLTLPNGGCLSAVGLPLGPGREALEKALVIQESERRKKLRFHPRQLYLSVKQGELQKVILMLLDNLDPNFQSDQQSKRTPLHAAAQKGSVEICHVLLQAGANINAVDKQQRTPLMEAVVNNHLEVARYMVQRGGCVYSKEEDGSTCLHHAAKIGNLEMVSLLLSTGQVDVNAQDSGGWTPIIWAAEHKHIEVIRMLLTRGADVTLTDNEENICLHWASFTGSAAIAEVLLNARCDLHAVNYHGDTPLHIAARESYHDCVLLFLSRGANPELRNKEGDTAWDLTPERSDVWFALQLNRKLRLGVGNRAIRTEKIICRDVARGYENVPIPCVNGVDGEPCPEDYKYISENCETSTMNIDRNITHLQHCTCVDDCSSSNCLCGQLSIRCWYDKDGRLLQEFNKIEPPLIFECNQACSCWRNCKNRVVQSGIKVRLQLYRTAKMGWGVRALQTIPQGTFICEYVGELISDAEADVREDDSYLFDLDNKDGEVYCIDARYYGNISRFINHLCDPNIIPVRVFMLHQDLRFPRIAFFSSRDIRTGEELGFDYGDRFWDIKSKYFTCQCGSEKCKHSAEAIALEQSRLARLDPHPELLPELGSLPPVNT
# Test: qHTS Assay for Inhibitors of Histone Lysine Methyltransferase G9a; further: nearly all actives have a fitted effect of over 75% in size
# Settings: G9a H3K9 monomethylation, AlphaScreen, 2 h; activity, negative = inhibition: at 59 µM (top of the series) unless noted
# Summary of the method: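 Readings reflect AlphaScreen signal from monomethyl-H3K9 antibody detection. HMT at 20 nM; substrate b-H3K9 500 nM; cofactor SAM 20 uM; 2 h RT reaction; compounds tested as titrations in qHTS with 15 min preincubation.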
# On the % scale 0 is the no-effect control and ±100 the full control effect; potency means the concentration at half of the fitted maximal effect; tags describe the fitted curve by direction and shape.
SMILES,Potency,"activity, negative = inhibition"
CCOC(=O)CC1=NN(c2ccccc2)C(=O)/C1=C\c1ccc(OC)cc1OC,active: 10 µM,
CN1C(=O)c2cccc3c(S(=O)(=O)NCCc4ccccc4)ccc1c23,inactive,
COc1cc(NC(=O)c2cc3ccc4cccnc4c3[nH]2)cc(OC)c1OC,"inconclusive: 28.2 µM [inhibitor, partial curve, poor fit]",
CCOC(=O)c1ccc(NC(=O)CC2C(=O)N(c3ccc(C)cc3)C(=O)N2C2CCCC2)cc1 (configuration not stated),inactive,
CC(C)(C)c1cc(C(=O)NNC(=O)c2ccc(Cl)cc2)no1,"inconclusive: 89.1 µM [inhibitor, partial curve, poor fit]",
CN(C)CCNC(=O)C1(O)c2cc(Br)ccc2NC(=O)N1c1ccc(Cl)cc1 (configuration not stated),inactive,
CC(C)(C)C(=O)Nc1cccc(C(=O)OCc2cc(=O)n3nc(C4CC4)sc3n2)c1,"inconclusive: 39.8 µM [inhibitor, partial curve, poor fit]",
CCOC(=O)c1nn(-c2ccc(F)cc2)c2nc(CC(C)C)c(C#N)c(=O)n12,"inconclusive: 39.8 µM [inhibitor, single point]",
O=C(CCCc1ccccc1)NCc1cn2ccsc2n1,"inconclusive: 17.8 µM [inhibitor, partial curve, poor fit]",
Cc1sc(N/N=C/c2cc([N+](=O)[O-])ccc2O)nc1-c1ccccc1,inactive,
CC(Nc1ccc(-c2nc(-c3ccco3)no2)cc1[N+](=O)[O-])c1ccccc1 (configuration not stated),"inconclusive: 31.6 µM [inhibitor, single point]",
CC(NC(=O)c1cc(-c2ccc3c(c2)OCO3)nc2ccccc12)C(C)(C)C (configuration not stated),"inconclusive: 28.2 µM [inhibitor, partial curve, poor fit]",
CCS(=O)(=O)c1oc(-c2ccc(F)cc2)nc1S(=O)(=O)c1ccc(Br)cc1,"inconclusive: 8.91 µM [inhibitor, partial curve]",
N#Cc1ccc(NC(=O)CSc2nc3[nH]c(=O)cc(O)c3s2)cc1,"inconclusive: 3.16 µM [inhibitor, partial curve, poor fit]",
O=C1C(c2ccccc2)SC(=Nc2ccccc2)N1S(=O)(=O)c1ccccc1 (configuration not stated),"inconclusive: 1.41 µM [inhibitor, single point]",
COc1ccccc1C1C(C(=O)c2cc3ccccc3o2)=C(O)C(=O)N1CCN1CCOCC1 (configuration not stated),active: 8.91 µM,
Cc1ccn2c(NC3CCCCC3)c(C(C)C)nc2c1,"inconclusive: 10 µM [inhibitor, partial curve, poor fit]",
CC(C)(C)C(=O)Nc1c2c(nc3c1CCC3)CCCC2,"inconclusive: 89.1 µM [inhibitor, single point]",
CC(=O)NCc1ccc(C(=O)CSc2nnc(C3CC3)n2C2CC2)cc1,"inconclusive: 15.8 µM [inhibitor, single point]",
O=C(Nc1ccc2c(c1)OCO2)c1cnc2n(c1=O)CCS2,"inconclusive: 28.2 µM [inhibitor, single point]",
CCC(C)Sc1nnc(Cc2cc(=O)[nH]c(=O)[nH]2)n1-c1ccc(F)cc1 (configuration not stated),active: 39.8 µM,
CCOC(=O)N1CCc2c(sc(NCc3sccc3C)c2C(=O)Nc2cc(Cl)ccc2OC)C1,active: 3.55 µM,
CCS(=O)(=O)c1nc(S(=O)(=O)c2ccc(C)cc2)c(NCC(C)C)s1,inactive,

SMILES,Potency,"activity, negative = inhibition"
CCOC(=O)c1nc2cc3n(c(C)c-2c1C)C(C)C(C)=C3C (configuration not stated),,inactive: -38.9% [at 12.7 µM]
CCCN(CCO)CCCc1ccccc1,"inconclusive: 3.16 µM [inhibitor, single point]",
CC(C)(C)c1ccc(C(=O)/C(C#N)=C/c2cccs2)cc1,"inconclusive: 22.4 µM [inhibitor, single point]",
COc1cc(N2CCCC2)c(OC)cc1/C=C(/C#N)c1cccc(Br)c1,"inconclusive: 2.51 µM [inhibitor, partial curve, poor fit]",
CCC1=Nc2cc(C(=O)NCCCOC(C)C)ccc2Sc2ccccc21,"inconclusive: 39.8 µM [inhibitor, single point]",
COc1ccc(C(c2nnnn2Cc2cccs2)N2CCC(C(N)=O)CC2)c(OC)c1 (configuration not stated),"inconclusive: 79.4 µM [inhibitor, single point]",
OCCC1CN(Cc2cccc(O)c2)CCN1CCc1ccccc1 (configuration not stated),"inconclusive: 70.8 µM [inhibitor, partial curve, poor fit]",
COc1ccc(N2CCN(C(=O)C3Cc4ccccc4CN3C(=O)c3ccco3)CC2)cc1 (configuration not stated),"inconclusive: 39.8 µM [inhibitor, single point]",
Cc1nc2ccc(S(=O)(=O)Nc3ccc(-c4nc5cccnc5s4)cc3)cc2s1,"inconclusive: 89.1 µM [inhibitor, single point]",
Cc1ccc(C2CC(=O)NC(SCc3ccccc3)=C2C#N)o1 (configuration not stated),,inconclusive: -98.2% [inhibitor] [at 2.33 µM]
O=C(Nc1ccc(-n2ccnc2P(=O)(O)c2ccccc2)cc1)c1ccccc1Cl,"inconclusive: 6.31 µM [inhibitor, single point]",
Brc1ccccc1-n1nnc(-c2cccnc2)n1,,inconclusive: -86.1% [inhibitor]
COCC(C)n1c(C)cc(C(=O)COC(=O)c2oc3ccccc3c2C)c1C (configuration not stated),"inconclusive: 79.4 µM [inhibitor, partial curve, poor fit]",
CC(C)COc1ccc(C(=O)OCCN2CCOCC2)c(O)c1,"inconclusive: 56.2 µM [inhibitor, partial curve, poor fit]",
CC(Sc1ncccn1)C(=O)Nc1ccc2c(c1)OCCO2 (configuration not stated),"inconclusive: 89.1 µM [inhibitor, single point]",
O=C(Nn1cnnc1)c1ccc(OC(F)(F)C(F)C(F)(F)F)cc1 (configuration not stated),"inconclusive: 89.1 µM [inhibitor, single point]",
C/C(=N\NC(=O)c1ccccn1)C12CC3CC(CC(C3)C1)C2,"inconclusive: 6.31 µM [inhibitor, single point]",
C1CCC(N=C(NC23CC4CC(CC(C4)C2)C3)N2CCOCC2)CC1,"inconclusive: 70.8 µM [inhibitor, partial curve] and inconclusive: 26.7 µM [inhibitor, single point]",
O=C(COC(=O)c1cnc(Cl)c(Cl)c1)NCc1ccco1,"inconclusive: 56.2 µM [inhibitor, partial curve, poor fit]",
CC(C)c1ccc(O)c(NC(=O)c2cccnc2)c1,"inconclusive: 89.1 µM [inhibitor, single point]",
CC(=O)Nc1cccc(-c2cnc3ccccc3n2)c1,"inconclusive: 89.1 µM [inhibitor, partial curve, poor fit]",
COc1ccccc1NS(=O)(=O)c1cc(NC(=O)c2cc[n+]([O-])cc2)ccc1N1CCCC1,"inconclusive: 4.47 µM [inhibitor, full curve, poor fit]",
CC(=C/C(=O)O)/C=C/c1ccc([N+](=O)[O-])cc1,active: 56.2 µM,

SMILES,Potency,"activity, negative = inhibition"
CCc1nn2c(=O)cc(COC(=O)C3CCCCC3)nc2s1,inactive,
COc1ccccc1C(c1nnnn1C(C)(C)C)N1CCN(Cc2ccccc2)CC1 (configuration not stated),"inconclusive: 39.8 µM [inhibitor, single point]",
CCn1cc(C2Nc3ccccc3C(=O)N2O)c(C)n1 (configuration not stated),active: 17.8 µM,
CCOc1ccc(C(=O)Nc2nnc(NC(=S)Nc3ccccc3)s2)cc1,"inconclusive: 50.1 µM [inhibitor, partial curve]",
CCCc1cc(=O)[nH]c(SCc2cc(C(=O)OC)c(C)o2)n1,"inconclusive: 22.4 µM [inhibitor, single point]",
CN(C)C(=S)NC(=NCc1ccc([N+](=O)[O-])cc1)c1ccccc1,active: 70.8 µM,
Cn1c(C(=O)N2CCOCC2)cnc1Sc1ncc(C(F)(F)F)cc1Cl,inactive,
Cc1ccc(C(=O)CSc2n[nH]c(-c3ccco3)n2)cc1C,"inconclusive: 3.55 µM [inhibitor, partial curve, poor fit]",
CCOC(=O)c1sc(NC(=O)CCC(=O)O)nc1C,inactive,
COc1ccc2[nH]c(C(=O)O)c(NS(=O)(=O)c3ccc(C)cc3C)c2c1,active: 39.8 µM,
Oc1ccccc1/C=N/Nc1nn[nH]n1,active: 39.8 µM,
COCCNCc1ccc(Cl)cc1Cl,"inconclusive: 44.7 µM [inhibitor, partial curve]",
O=C(CSc1nccn1-c1cccc(Cl)c1)NO,"inconclusive: 79.4 µM [inhibitor, single point]",
COc1ccc(CC(=O)Nc2ccc(C(=O)Nc3nccs3)cc2)cc1OC,"inconclusive: 70.8 µM [inhibitor, partial curve, poor fit]",
CCOc1ccc(NC(=O)Cn2cnc3c(oc4ccccc43)c2=O)cc1,"inconclusive: 11.2 µM [inhibitor, partial curve]",
Cc1cc2c(c(=O)n1CCCn1ccnc1)C(c1ccco1)C(C#N)=C(N)O2 (configuration not stated),"inconclusive: 89.1 µM [inhibitor, partial curve, poor fit]",
Cc1cc(C(=O)OCC(=O)Nc2c(F)cccc2F)c(C)n1-c1ccccc1,inactive,
COc1cc(-c2noc(C3CC(=O)N(c4cc(C)ccc4C)C3)n2)cc(OC)c1OC (configuration not stated),inactive,
N#Cc1c(Sc2ncc(C(F)(F)F)cc2Cl)nsc1C/C=N\OCc1c(F)cccc1Cl,active: 10 µM,
COc1cccc(Nc2n[nH]c(=S)s2)c1,active: 1.41 µM,
O=C(CNC(=O)c1ccccc1)Oc1ccc([N+](=O)[O-])cc1,"inconclusive: 89.1 µM [inhibitor, single point]",
